Test results reported in the RNAGym collection of RNA variant scans (doi:10.7554/elife.90254).
Read counts are not given, so values of variants with three or more changes are uncertain.

B1: LINE1-mini (parent)
chain: GGCAGAGCUCAACACAGCGUGGCAAAGUGGCUGUGGCUAGACUGCC

Variants of: B1
Test: self-cleavage, relative activity (ratio to wild type); higher = more cleavage; in vitro, sequencing; the parent is a self-cleaving ribozyme

Row | Variant | self-cleavage
1 | G5U G7C C31G U32A | 0.03
2 | A4C A12U A39C C42G | 0.08
3 | G1U C15G U20C A25C G33U | 0.01
4 | G5C G17U U20A G27U C42A | 0.04
5 | G21C G36A C37U C46G | 0.12
6 | C3G G33U G35A G40U C45G | 0.05
7 | C3A A6U C10G G17A G21U A26G G33U | 0.03
8 | C10U G21U G33U G36U C37A | 0.06
9 | G1A C3A A26C U34A U43C C46U | 0.43
10 | C18A G19A G33U | 0.05
11 | U9C C13U G36A A39U | 0.01
12 | G22U G29C C31G C42A U43A | 0.12
13 | C23A U28C C37U | 0.02
14 | A16U G33U U34G G35A | 0.02
15 | A6U C15U C18G G33A | 0.22
16 | G1U G5A G17U G22C C23A G33A U43C | 0.05
17 | U9A A11G A12U G27A G30C | 0.02
18 | G27U U28G A39U G44A | 0.25
19 | C15U A25G C46A | 0.29
20 | C13A C15G C37A | 0.08
21 | A11G G17C U38A | 0.02
22 | G17A A25G G29U | 0.09
23 | G1C A12U C31G G40A | 0.01
24 | A16G G19U A24C A26C C31A C46G | 0.03

Row | Variant | self-cleavage
25 | C3A C23U U34A A39C | 0.02
26 | C3A C23U C46A | 0.14
27 | C15A U20C U28A G29A | 0.02
28 | C8A G29A C42G | 1.79
29 | C10U A14G G27C | 0.14
30 | G17U U32C C37G G40A | 0.02
31 | A16C C18A U28A G36U | 0.03
32 | C15G A16C C18G | 0.06
33 | G1C A6U U28C G36C | 0.01
34 | C3A A12G C23A | 0.65
35 | C13G A16U A25C | 0.13
36 | G17A G27A G35U A39C | 0.04
37 | A14U U20G U28G C31U | 0
38 | G1U A14G C45G | 0.03
39 | A4C G17U A25G A39C | 0.02
40 | C23U C37G U43C | 0.83
41 | G7C C13G C31A | 0.05
42 | G1C C8A C15A C31U | 0.02
43 | A6G A16U G22U G30A C31U C46A | 0.05
44 | G5C U9A C15A | 0.02
45 | A16C C18G C42G | 0.04
46 | G1C A16G U20G G30C | 0.01
47 | C8G C10U C15U G17A A26C | 0.02
48 | C8A C10U A11U C46U | 0.03

Row | Variant | self-cleavage
49 | G1C A11G A24U C42A | 0
50 | G2A A4C A24U C46A | 0.13
51 | A12C A16U G29A | 0
52 | G1C C8G A11C C18U C46U | 0.02
53 | G22A G29C G30U | 0.19
54 | U9A A25C G27C C31G | 0.03
55 | G1C U20C G22A | 0.04
56 | G19U G30U C31G G44A | 0.04
57 | A14G C23A U32A | 0.04
58 | G5A G7A A11G A16U G44U | 0.03
59 | G1U G19U G29A U32A C37G A41U C42G | 0.01
60 | G2C C8G U32G C45G | 0.04
61 | G21U A25U C42G | 0.08
62 | A6G A16G G17U | 0.26
63 | A6G C13G G33U U34A | 0.03
64 | G2C C10U U34G | 0.05
65 | G19C A24U G40C | 0.12
66 | G22U G36A A39U | 0.1
67 | A12U A26G A39G | 0.02
68 | G1C U9A C45G | 0.02
69 | G1A A14G U28A C45G | 0.04
70 | A6G C10G G29A | 0.03
71 | C10U A24U C45U | 0.23
72 | C18G C31G U32C C46U | 0.05

Row | Variant | self-cleavage
73 | A6C C10U G17U C18U C37U C42U | 0
74 | A4G G40U C42A | 0.02
75 | G1C U9A A14G U32C A39U | 0
76 | G40U C42A U43A | 0.03
77 | G1U U9A C10A G27A | 0.01
78 | A24C A25U U28A G30A C31A | 0.04
79 | A4G C18A G40U | 0.16
80 | G17U C23A A25G G29A C31U C37A G40U | 0.01
81 | G30A A41G U43A | 0.06
82 | A4G C37A C45A | 0.64
83 | C18A G19U G44U | 0.22
84 | A6C G19A U20G G33C | 0.03
85 | G5U G27U C42G | 0.05
86 | A12U U34A A39C G40U | 0
87 | U9A A12U G27A C31G C37A G44A C45G | 0.02
88 | G1U A14G G19C | 0.11
89 | C10U C15G C18A G44A | 0.03
90 | A24G U28C A41U U43A | 0.08
91 | C13A A14G G19U U28G G30U C37A C45A | 0.01
92 | A4G U9A U34A | 0.67
93 | G1A G17A C31U A39C C42A | 0.02
94 | C15A G30C C31A | 0.02
95 | C15A G21U A24U | 0.01
96 | G2U G7U A16U U34A | 0

Row | Variant | self-cleavage
97 | A6U A12C A14U G17A C23U | 0.03
98 | U20A A24U G27A C37A | 0.01
99 | C10U C18U G21A | 0.66
100 | C15G C18G C37G | 0.01
101 | A11U G19C A41U C42U | 0.03
102 | C8G G22A A26U G33A | 0.03
103 | C3A G27A G35U G40A | 0.16
104 | G2C G22C G29U G33U | 0.21
105 | G5C G30U G33A G40U A41G | 0.02
106 | C13U C15A G40U | 0.14
107 | A4G A11C G17C G29U G33C | 0.03
108 | C3A A12C C18A G29U C46U | 0.16
109 | G7U C10A C15U C23U U32C G33C | 0.03
110 | G2C C8A G30A | 0.97
111 | G2U C15U C18A G27A G33U G36A | 0
112 | C13U G21A C23U G33A G36C | 0.05
113 | C8A U9A C18A A26U C45A | 0.36
114 | U9C A25C C46U | 0.03
115 | A6U A12G A16C U32C | 0
116 | G1C A25C U43C | 0.03
117 | C3U G17C G29U G35U | 0.05
118 | A14U C18A G30U | 0.08
119 | C15A A24U U32G | 0.08
120 | A26G G27A G33C | 0.01

Row | Variant | self-cleavage
121 | A16U U43G G44U | 0.02
122 | G7U G19U A41C | 0.21
123 | C18A G29C C37G | 0.01
124 | G1A C15U U34G | 0.03
125 | C13A G33C G44C | 0.02
126 | G17U G35A C46A | 0.02
127 | G17A C18A G33A | 0.02
128 | C13G C18A G29U U32G G33U U38G | 0.05
129 | G2U U28A G40C | 0.1
130 | G5A U9C A11C G17C C31U | 0.03
131 | C15A C23A G33C U34A | 0.06
132 | G30U U32C G35C G36C | 0.03
133 | C18G G29U G40U | 0.08
134 | C10G A12C G17C A41G | 0.01
135 | U9G G33A C46U | 0.06
136 | A6U C13U A25U U38C | 0.1
137 | A16U C31U G33C | 0.02
138 | C8G A11C C18A A24C C31U | 0.01
139 | A16G C18U U32A | 0.03
140 | G7C G17U A39U | 0.01
141 | G22A G36U C45G | 0.09
142 | A4C A11G G19A U34A G40U | 0.02
143 | A4U U9C G17U A26C G35A A39G | 0.01
144 | C3G C31A A41G | 0.09

Row | Variant | self-cleavage
145 | U28C G36C C37G A39G C45U | 0.02
146 | C3A U9C G36C A41U C45G | 0.02
147 | C3U A11C U28C | 0.03
148 | G5C A16G A25C G29C U43A | 0.01
149 | C15A G30C U34A U38G | 0
150 | C8G A11G C13G G36U C37A | 0.01
151 | G1U G7U U34G A39U | 0.03
152 | G2C C31U U34C | 0.05
153 | G22C U28A C45A | 0.88
154 | C3A C10U A14C G33A A39U | 0.02
155 | G2A C10A A16U C37A U38A | 0.04
156 | G2A G22U G33U | 0.17
157 | C8A C42A C46U | 0.09
158 | G2U C10A C42G | 0
159 | C13U U32C G44U | 0.14
160 | G22C G29C C42A | 0.02
161 | G33A C42G C45A | 0.12
162 | G2A C13G U20G G21C C42U G44A C46U | 0.17
163 | G22A U34G U43C | 0.01
164 | A12G C13A C42A | 0.01
165 | C10A G21U G30U G33C | 0.1
166 | C8A C10U G19C G44C | 0.03
167 | A4C G17U A24C C31A G44U | 0.03
